The text below walks through data of paper PMC9926122.

Protein sequences, listed by entry. Tags and fused reporters are not part of them.
UniProt Q15691: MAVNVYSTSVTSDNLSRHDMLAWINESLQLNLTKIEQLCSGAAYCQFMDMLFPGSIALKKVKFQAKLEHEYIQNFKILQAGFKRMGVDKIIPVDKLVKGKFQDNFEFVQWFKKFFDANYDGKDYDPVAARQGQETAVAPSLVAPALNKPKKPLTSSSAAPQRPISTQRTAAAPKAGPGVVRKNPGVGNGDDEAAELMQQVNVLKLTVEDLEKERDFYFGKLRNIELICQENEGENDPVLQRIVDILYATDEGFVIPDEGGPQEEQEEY

No constants are given. Whether binding was seen depends on the method and setting. For some assays here: In cells and extracts the contact can be indirect. Some binding calls cover weakened binding; strength is not graded here. For some assays here: Tags and fused reporters may be left off the sequences shown.

One experiment concerns the target EB1-GST (human) (UniProt Q15691). The experiment is described as follows: pull-down; purified Ska1 WT or mutant proteins incubated with EB1-GST preincubated with GSH-Sepharose beads; beads washed with lysis buffer; immunoblot; both purified.
Experiment [1] addresses 6xHis-tagged WT Ska1 (human) (UniProt Q96BD8). Put plainly: high-speed atomic force microscopy (HS-AFM); proteins (10-30 nM; 10 nM in the frames shown) in BRB80 buffer (80 mM Pipes, 1 mM EGTA, 1 mM MgCl2, pH 6.9) on mica, tapping mode, 150 ms per frame; EB1 alone, Ska1 alone and their mixture; both purified.
Experiment [2] deals with endogenous EB1 (end binding 1) (human (endogenous in HEK293T)) (UniProt Q15691). Put plainly: co-IP; endogenous EB1 immunoprecipitated with EB1 antibody (protein A/G beads) from lysates of transfected HEK293T cells synchronized in mitosis by double thymidine; Western blot for the GFP-tagged Ska1 proteins.
Experiment [3] has as its target Ska1 1-132-GFP (human) (UniProt Q96BD8). The experiment is described as follows: co-IP; GFP-tagged Ska1 proteins pulled down with GFP-trap beads (4 h) from lysates of transfected HEK293T cells synchronized in mitosis by double thymidine, in part with Ska1 siRNA; Western blot for EB1 or Ska3.
A further experiment addresses Ska1 SHNN-GFP (human) (UniProt Q96BD8). The experiment is described as above.
A further experiment has as its target Ska1 1-91-GFP (human) (UniProt Q96BD8). The description is as above.
Experiment [4] deals with full-length Ska1-GFP (siRNA-resistant) (human) (UniProt Q96BD8). Described as above.
A further experiment addresses Ska1 Δloop-GFP (human) (UniProt Q96BD8). The description is as above.
Experiment [5] addresses Ska1 1-132-GFP (human) (UniProt Q96BD8). The experiment is described as follows: co-IP; Ska1 1-132-GFP immunoprecipitated with GFP antibody (Takara), protein A/G beads; blot for EB1.

As to “6xHis Ska1Δloop (from UniProt Q96BD8 1-91; Q96BD8 133-255)”, in the experiment with EB1-GST (human), the binding entry is reported as “no binding”.

On to “6xHis-tagged WT Ska1 (from UniProt Q96BD8 1-255)”, for which the binding entry in experiment [1] is reported as “no binding (tested: 10 nM)”.

For the substance “Ska1 1-132-GFP (from UniProt Q96BD8 1-132) (domain or fragment)”, in experiment [2], the binding result is “binds”.

As for “Ska1 Δloop-GFP (from UniProt Q96BD8 1-91; Q96BD8 133-255)”, in experiment [2], the binding entry is “no binding”.

Take “endogenous EB1 (end binding 1) (from UniProt Q15691 1-268)”: the binding result with Ska1 1-132-GFP (human) [3] is listed as “binds”; with Ska1 SHNN-GFP (human) it was “no binding”; with Ska1 1-91-GFP (human) it was “no binding”; in [4] it was “binds”; with Ska1 Δloop-GFP (human), “no binding”; with Ska1 1-132-GFP (human) [5], “binds”.

With “full-length Ska1-GFP (siRNA-resistant) (from UniProt Q96BD8 1-255)”, in [2], the binding result is “binds”.
